48 molecules from PubChem BioAssay AID1159614 (National Center for Advancing Translational Sciences (NCATS), 2016) can be followed below.

Molecules are shown by their SMILES. In all, about 45,000 compounds went through this assay and about 65 (0.1%) were called active. The call rests on the fitted dose curve; in most records, active means well fitted activation curve with a large enough effect; inconclusive means small, poorly fitted or top-dose-only effect; inactive means no such curve, though single readings can be large or run the other way. The list shows a part of the results.

Sequence of UniProt P54803 (P54803 whole entry, looked up): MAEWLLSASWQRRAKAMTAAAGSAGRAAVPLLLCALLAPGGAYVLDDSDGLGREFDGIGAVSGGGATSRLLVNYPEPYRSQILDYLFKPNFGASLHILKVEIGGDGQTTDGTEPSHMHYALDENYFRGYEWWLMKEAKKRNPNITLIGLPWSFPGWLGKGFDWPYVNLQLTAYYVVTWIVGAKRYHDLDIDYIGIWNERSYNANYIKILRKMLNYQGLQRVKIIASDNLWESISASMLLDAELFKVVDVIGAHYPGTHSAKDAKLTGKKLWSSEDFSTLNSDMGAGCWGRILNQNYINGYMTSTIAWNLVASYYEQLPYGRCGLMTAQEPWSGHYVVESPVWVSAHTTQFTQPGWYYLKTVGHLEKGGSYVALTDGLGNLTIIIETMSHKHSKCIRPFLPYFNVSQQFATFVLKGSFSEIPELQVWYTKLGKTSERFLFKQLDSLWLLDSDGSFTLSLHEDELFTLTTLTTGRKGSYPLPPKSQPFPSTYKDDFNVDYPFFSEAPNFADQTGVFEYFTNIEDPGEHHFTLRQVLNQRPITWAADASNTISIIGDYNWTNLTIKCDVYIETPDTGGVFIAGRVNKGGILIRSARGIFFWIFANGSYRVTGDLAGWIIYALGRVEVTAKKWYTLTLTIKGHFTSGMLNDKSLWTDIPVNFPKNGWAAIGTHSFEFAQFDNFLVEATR

In this test the target is Galactocerebrosidase (Homo sapiens) (UniProt P54803). Description: A Novel Cell-Based Assay to Identify Small Molecules for B -Galactocerebrosidase. Further: 0% is about no effect; nearly all actives have a fitted effect of over 65% in size. The conditions noted are these: 145M-Twi-hGALC-G270D cells (Twitcher mouse brain line with human GALC G270D), HMU-beta-Gal fluorescence, 48 h; series mostly up to 57.5 µM; activation: at the top concentration. Put shortly:
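Fluorescence readout: HMU-β-gal cleavage by mutant GALC (0.1 mM final, citrate/phosphate pH 5.2 with 1 mg/mL taurocholate), stopped with carbonate/bicarbonate plus Triton X-100. Cells: murine Twitcher 145M-Twi expressing human G270D GALC; qHTS for activators.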
Turning to `O=C(Cn1cnc2onc(-c3ccc(F)cc3)c2c1=O)Nc1ccc(F)c(Cl)c1`, the “activation” value was inactive: -22.6%.

In the case of `O=C(CN1c2ccccc2S(=O)(=O)c2ccccc21)Nc1ccccc1Cl`, the “activation” value is inactive: -35.1%.

With `COc1ccc(OC)c(NC(=O)CSc2ncc3c(n2)-c2ccccc2N(C)S3(=O)=O)c1`, the “activation” value is inactive: -12.6%.

As for `O=C(C1COc2ccccc2O1)N(Cc1cccnc1)c1nc2c(Cl)cccc2s1` (stereo not drawn), the “activation” value is inactive: -13.1%.

As to `NC(=O)Cn1c(=O)n(CCCCCC(=O)NCc2ccc(F)cc2)c(=O)c2sccc21`, the “activation” value was inactive: -0.584%.

Regarding `CCCNC(=O)c1ccc(-c2nc(CS(=O)(=O)c3ccc(C)cc3)c(C)o2)cc1`, the “activation” value was inactive: -7.44%.

In the case of `CCOC(=O)N1CCN(Cc2nc3cc(NC(=O)C(C)C)ccc3n2C(C)C)CC1`, the “activation” value was inactive: 7.01%.

Take `O=C(c1ccc2c(c1)N(Cc1c(F)cccc1Cl)C(=O)c1ccccc1S2)N1CCOCC1`: the “activation” value was inactive: -1.07%.

Consider `CCc1cccc(NC(=O)C2Cc3ccccc3N2C(=O)c2ccccc2)c1` (stereo not drawn), for which the “activation” value is inactive: 3.72%.

Take `CCOc1cccc(C2c3[nH]c4ccccc4c3CCN2C(=O)CSCc2ccc(F)cc2)c1` (stereo not drawn): the “activation” value is inactive: -1.33%.

With `Cc1ccc2nc(COc3ccccc3NC(=O)c3ccccc3F)cc(=O)n2c1`, the “activation” value is inactive: -6.49%.

As to `Cc1ccc2c(c1)c(CC(=O)Nc1ccc(C)c(F)c1)c(C(=O)O)n2C`, the “activation” value is inactive: -13.5%.

`CC1=C(C(=O)Nc2cccnc2)C(c2ccccc2)n2nc(SCc3ccccc3Cl)nc2N1` (stereo not drawn): the “activation” value is inactive: -11.7%.

Consider `COc1ccc(C)cc1NC(=O)C1CCN(S(=O)(=O)c2ccc3c(c2)CCCN3C(C)=O)CC1`, for which the “activation” value was inactive: -15.5%.

As for `O=C(Nc1ccc(N2CCN(c3ccc(F)cc3)CC2)c(C(=O)O)c1)c1ccccc1F`, the “activation” value was inactive: -6.58%.

`CCCCOc1ccc(Cn2c(=O)oc3ccc(C)cc32)cc1`: the “activation” value is inactive: -15.4%.

Regarding `Cc1ccc(CCNC(=O)Cn2ncc3c([nH]c4ccc(C)cc43)c2=O)cc1`, the “activation” value was inactive: -7.59%.

For `CCc1ccc(NC(=O)CN2C(=O)C(c3ccc(F)cc3)=NC2(C)C)cc1`, the “activation” value is inactive: 0.779%.

With `CCOC(=O)c1ccc(NC(=O)CSc2nc3ccccc3c(=O)n2CCNC(C)=O)cc1`, the “activation” value is inactive: -8.7%.

As to `O=C(CS(=O)(=O)c1cccc2nsnc12)Nc1ccc(F)cc1`, the “activation” value was inactive: -9.31%.

With `Cc1cccc(-c2nnn3c2nc(NCCc2ccc(S(N)(=O)=O)cc2)c2ccccc23)c1`, the “activation” value was inactive: 4.04%.

In the case of `CCCN(CCC)CCNC(=O)Cn1cc2c(n1)-c1c(oc(C(=O)N3CCCC3)c1C)CC2`, the “activation” value was inactive: -19.8%.

For the molecule `COc1ccc(OC)c(NC(=O)CSc2cn(CC(=O)N3CCCCCC3)c3ccccc23)c1`, the “activation” value was inactive: -8.66%.

As to `Cc1ccc(NC(=O)CSc2nc3ccccc3nc2Cc2ccccc2)c(C)c1`, the “activation” value is inactive: -10.2%.

In the case of `Cc1cccc(NC(=O)c2cc(-c3ccc4c(c3)OCCO4)on2)c1`, the “activation” value is inactive: -14.5%.

Consider `Cc1cc(NCc2ccccc2Cl)n2cnnc2n1`, for which the “activation” value was inactive: -11.9%.

As to `CCOc1ccc(Cn2c(-c3ccc(OCC)c(OC)c3)nc3ccccc32)cc1OC`, the “activation” value is inactive: -16.5%.

With `COc1ccc(S(=O)(=O)Nc2nnc(CC(C)C)s2)cc1`, the “activation” value was inactive: -4.14%.

Consider `COC(=O)c1cc(S(=O)(=O)NCC2CCN(Cc3ccc(F)cc3)CC2)c[nH]1`, for which the “activation” value is inactive: -4.61%.

On to `COCCNC(=O)CSc1nc2cc3c(cc2c(=O)n1CCCC(=O)NCc1ccc(OC)cc1)OCO3`, for which the “activation” value is inactive: 0.376%.

For the molecule `CCSc1ncc(Cl)c(C(=O)N(Cc2ccc(N(C)C)cc2)Cc2ccco2)n1`, the “activation” value was inactive: -34.4%.

For `COCCNC(=O)c1ccc2c(c1)N(Cc1cc(C)ccc1C)C(=O)c1ccccc1S2(=O)=O`, the “activation” value was inactive: -0.38%.

Regarding `COc1ccc(S(=O)(=O)N2CCN(c3ccc(Cl)c(Cl)c3)CC2)c2ccccc12`, the “activation” value is inactive: -7.35%.

Regarding `COc1ccc(CNC(=O)C2CCN(S(=O)(=O)c3ccc(F)cc3)CC2)cc1`, the “activation” value is inactive: -15.2%.

On to `CSc1ncc(C(=O)Nc2cccc(C)c2C)c(-c2ccccc2)n1`, for which the “activation” value is inactive: -8.63%.

Turning to `Cc1ccc(O)c2ncccc12`, the “activation” value is inactive: -12.8%.

For `Cc1ccc(-c2nc(-c3cc4cccc(OCc5ccc(F)cc5)c4oc3=O)no2)cc1`, the “activation” value was inactive: -12.8%.

Consider `CCN1CCc2nc3sc(C(=O)c4ccccc4)c(N)c3cc2C1`, for which the “activation” value is inactive: -11.6%.

Turning to `CCN(c1ccccc1)S(=O)(=O)c1nnc(NC(=O)C(C)(C)C)s1`, the “activation” value was inactive: -7.39%.

On to `CC(CNC(=O)c1ccc(CSc2nc3ccncc3n2Cc2ccc(F)cc2)cc1)c1ccccc1` (stereo not drawn), for which the “activation” value is inactive: -8.58%.

Consider `COC(=O)c1ccc2c(c1)N(Cc1cc(C)ccc1C)C(=O)c1ccccc1S2`, for which the “activation” value is inactive: -27.9%.

With `CCOc1ccc(CCNC(=O)Cn2c(=O)c3cccn3c3ccc(F)cc32)cc1OCC`, the “activation” value was inactive: -16.7%.

Regarding `COC(=O)c1ccc(Cn2c(SCc3ccccc3F)nc3ccncc32)cc1`, the “activation” value was inactive: -0.428%.

Take `COc1ccc(-c2cc3ccc(O)c(CN4CCCC(C)C4)c3oc2=O)cc1` (stereo not drawn): the “activation” value is inactive: -23.9%.

Consider `CCOc1ccc2nc(N3CCCC(C(=O)NCCCOC)C3)sc2c1` (stereo not drawn), for which the “activation” value was inactive: -7.26%.

Turning to `Cc1nc2nc(NCc3cccc(Cl)c3)[nH]n2c(=O)c1Cc1ccccc1`, the “activation” value is inactive: -2.86%.

As to `CC(=O)N1CCc2cc(S(=O)(=O)NC(CC(C)C)C(=O)NCCc3ccc(C)cc3)ccc21` (stereo not drawn), the “activation” value is inactive: -12%.

Consider `COc1ccc(Cn2c(CCC(=O)Nc3ccc(C)c(C)c3)nc3cccnc32)cc1`, for which the “activation” value is inactive: -10.2%.
